Reference: PubChem BioAssay AID686979 (National Center for Advancing Translational Sciences (NCATS), 2013)
The campaign covered roughly 420,000 compounds. About 50,000 (12%) were called active. The shares of active, inactive and inconclusive entries below differ from those in the screen. The call rests on the fitted dose curve; in most records, active means well fitted inhibition curve with a large enough effect; inconclusive means small, poorly fitted or top-dose-only effect; inactive means flat fitted curve, though single readings scatter. No potency is given beside an inconclusive call; the fits are too rough.

Experiment: qHTS for Inhibitors of human tyrosyl-DNA phosphodiesterase 1 (TDP1): qHTS in cells in presence of CPT; further: nearly all actives have a fitted effect of over 55% in size
Conditions: chicken DT40 Tdp1-/-;hTDP1 cells + 20 nM CPT, ATP luminescence, 48 h; series mostly up to 46.2 µM
Summary of the method: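 Cell growth measured by CellTiter-Glo luminescence after a minimum 48 h, 37 C compound exposure with 20 nM CPT in Tdp1-knockout DT40 cells stably expressing hTDP1, seeded 400/well; qHTS titration format.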
Potency means the concentration at half of the fitted maximal effect; tags describe the fitted curve by direction and shape.

Structure (SMILES) | Potency
Cc1csc(NC(=O)CSc2ccc(-c3ccc(F)cc3)nn2)n1 | inconclusive [inhibitor, single point]
Cc1cccc(N2CCN(c3ncnc4onc(-c5ccc(F)cc5)c34)CC2C)c1 (configuration not stated) | active: 16.4 µM
O=C(CN1C(=O)c2cccc3cccc(c23)C1=O)N1CCN(Cc2ccc3c(c2)OCO3)CC1 | active: 20.6 µM
CCc1nc(NCCCN2CCOCC2)c2oc3ccccc3c2n1 | inconclusive [inhibitor, single point]
COc1cc(C=O)ccc1OCCOCCOc1ccc(Cl)cc1Cl | inconclusive [inhibitor, single point]
Cc1ccccc1C(=O)c1ccc2c(c1)n(C)c(=O)n2C | inconclusive [inhibitor, full curve, poor fit]
O=C(COc1ccc([N+](=O)[O-])cc1)NC(=O)NC1CCS(=O)(=O)C1 (configuration not stated) | inactive
CCc1ccc(NC(=O)C2CCCN(S(=O)(=O)c3cccnc3)C2)cc1 (configuration not stated) | inconclusive [inhibitor, single point]
COc1ccc(/C=C/C(=O)c2c(C)cc(C)[nH]c2=O)c2ccccc12 | inconclusive [inhibitor, single point]
Cc1nnsc1S(=O)c1ccc(F)cc1 (configuration not stated) | inactive
COc1ccc(-c2c(-c3cc(OC)cc(OC)c3)n(C)c3ccc(-c4ccn[nH]4)cc23)cc1 | inconclusive [inhibitor, single point]
CN(C)CCN(C)Cc1ccccc1Sc1cccc2ccccc12 | active: 9.2 µM
O=C(COC(=O)C1=Cc2ccccc2OC1)NC1CCCC1 | inactive
COc1ccc(N2CCN(c3nc4c(c(=O)n(C)c(=O)n4C)n3CCCc3ccccc3)CC2)cc1 | inconclusive [inhibitor, single point]
CCOC(=O)C1CCCN(CC(=O)Nc2c(C(=O)OC)[nH]c3ccc(C)cc23)C1 (configuration not stated) | inconclusive [inhibitor, single point]
Cc1ccc(NC(=O)CCc2nc3cccnc3n2-c2ccccc2)cc1 | inconclusive [inhibitor, single point]
CC1Nc2ncnc(N3CCN(c4ccccn4)CC3)c2N(Cc2ccccc2)C1=O (configuration not stated) | inconclusive [inhibitor, single point]
CCCCN(CC(=O)NCc1ccc(Cl)cc1)S(=O)(=O)c1ccc2c(c1)OCCO2 | inconclusive [inhibitor, single point]
O=C(Cn1cc([N+](=O)[O-])cn1)Nc1ccccn1 | inactive
Cc1cc(C)c2oc(-c3ccc(NC(=O)c4cc(Br)ccc4Cl)cc3)nc2c1 | inconclusive [inhibitor, single point]
O=C(Nc1ccc(S(=O)(=O)C(F)F)cc1)c1cccc(S(=O)(=O)N2CCOCC2)c1 | inconclusive [inhibitor, single point]

Structure (SMILES) | Potency
Cc1noc(C)c1-c1ccc(C(=O)Nc2cccc(NS(C)(=O)=O)c2)c2occc12 | inconclusive [inhibitor, single point]
CCCCN(C)S(=O)(=O)c1ccc(C(=O)Nc2nnc(C3=COCCO3)o2)cc1 | inconclusive [inhibitor, single point]
Cc1c(-c2ccccc2)n(-c2ccc(Cl)cc2)c2nc3c(c(=O)n(C)c(=O)n3C)n12 | inactive
Cc1ccc(S(=O)(=O)N(CC(=O)N2CCC(C)CC2)Cc2ccccc2F)cc1 | inconclusive [inhibitor, single point]
COc1ccc(NC(=O)CN2CCN(CC(=O)Nc3ccccc3Cl)CC2)cc1 | inconclusive [inhibitor, single point]
Cc1ccccc1NC(=S)NC(=O)COc1ccccc1C | inactive
CC(C)(C)C(=O)Nc1ccc(Cl)c(-c2nc3ccccc3[nH]2)c1 | inconclusive [inhibitor, single point]
O=C(CSc1ccc(-c2ccccn2)nn1)N1CCc2ccccc21 | inconclusive [inhibitor, single point]
C[C@H](CO)N1C[C@H](C)[C@@H](CN(C)Cc2ccc(Oc3ccccc3)cc2)Oc2c(NS(=O)(=O)c3cn(C)cn3)cccc2C1=O | inactive
COC(=O)c1ccc(CSc2ncnc3ccccc23)o1 | inconclusive [inhibitor, partial curve, poor fit]
NC(=S)n1[nH]c(-c2ccc([N+](=O)[O-])cc2)c(N=Nc2cccc([N+](=O)[O-])c2)c1=O | inconclusive [inhibitor, single point]
O=C(/C=C/c1ccc([N+](=O)[O-])cc1)NCc1cccs1 | inconclusive [inhibitor, partial curve]
Cn1nnc2c(N3CCN(c4ccccc4)CC3)ncnc21 | inconclusive [inhibitor, partial curve]
Cc1nn(Cc2ccccc2)c(C)c1NC(=O)CSc1nc2sc3c(c2c(=O)n1C)CCC3 | inconclusive [inhibitor, partial curve, poor fit]
C[C@H]1CN([C@@H](C)CO)C(=O)CCCn2cc(nn2)CO[C@@H]1CN(C)S(=O)(=O)c1cccs1 | inactive
C=CC[C@@H](CC(=O)NCCO)C(=O)N[C@H](C)COC(=O)[C@@H](CC=C)Cc1ccc(F)cc1 | inactive
Nc1ccc(-c2nc3ccc(N)cc3o2)cc1 | inactive
COc1cc(C=O)ccc1OCC(=O)Nc1ccccc1N1CCOCC1 | inconclusive [inhibitor, single point]
Cc1cc2ccccc2n1CCNC(=O)c1cc(C(F)(F)F)cc(C(F)(F)F)c1 | inconclusive [inhibitor, partial curve]
CCn1c(SC(C)C)nnc1-c1c[nH]c2ccccc12 | inconclusive [inhibitor, single point]
COc1ccc(C(=O)OCC(=O)Nc2nnc(-c3ccccc3)o2)cc1 | inconclusive [inhibitor, single point]
